# Reference: the supplement of paper PMC11741623
# The other results are listed elsewhere or left out. Interaction screen of human proteins with wild-type SARS-CoV-2 proteins by split-DHFR complementation in yeast, 1 µg/mL methotrexate. Value = fitness of the pair (three or more lineages) minus that of the viral protein without a human partner, on a scale set by negative (0) and fused positive (1) controls, mean of up to three cultures; higher = more likely to interact. Active = false discovery rate below 0.05 (one-sided t-test) in at least one culture. Nearly all pairs are not hits, and differences among them are mostly noise (correlation between cultures about 0.3); most hits were seen in one culture only. Human sequences are the Swiss-Prot entries looked up by gene name; the clone may be another isoform. NSP2 values were corrected by the authors for a growth advantage. Listed are human proteins with a hit and a random twelfth of the others.
# B1: A4GNT, Q9UNA3 (protein)
# chain: MRKELQLSLSVTLLLVCGFLYQFTLKSSCLFCLPSFKSHQGLEALLSHRRGIVFLETSERMEPPHLVSCSVESAAKIYPEWPVVFFMKGLTDSTPMPSNSTYPAFSFLSAIDNVFLFPLDMKRLLEDTPLFSWYNQINASAERNWLHISSDASRLAIIWKYGGIYMDTDVISIRPIPEENFLAAQASRYSSNGIFGFLPHHPFLWECMENFVEHYNSAIWGNQGPELMTRMLRVWCKLEDFQEVSDLRCLNISFLHPQRFYPISYREWRRYYEVWDTEPSFNVSYALHLWNHMNQEGRAVIRGSNTLVENLYRKHCPRTYRDLIKGPEGSVTGELGPGNK
# B2: SEC16B, Q96JE7 (protein)
# chain: MELWAPQRLPQTRGKATAPSKDPDRGFRRDGHHRPVPHSWHNGERFHQWQDNRGSPQPQQEPRADHQQQPHYASRPGDWHQPVSGVDYYEGGYRNQLYSRPGYENSYQSYQSPTMREEYAYGSYYYHGHPQWLQEERVPRQRSPYIWHEDYREQKYLDEHHYENQHSPFGTNSETHFQSNSRNPCKDSPASNSGQEWPGELFPGSLLAEAQKNKPSLASESNLLQQRESGLSSSSYELSQYIRDAPERDDPPASAAWSPVQADVSSAGPKAPMKFYIPHVPVSFGPGGQLVHVGPSSPTDGQAALVELHSMEVILNDSEEQEEMRSFSGPLIREDVHKVDIMTFCQQKAAQSCKSETLGSRDSALLWQLLVLLCRQNGSMVGSDIAELLMQDCKKLEKYKRQPPVANLINLTDEDWPVLSSGTPNLLTGEIPPSVETPAQIVEKFTRLLYYGRKKEALEWAMKNHLWGHALFLSSKMDPQTYSWVMSGFTSTLALNDPLQTLFQLMSGRIPQAATCCGEKQWGDWRPHLAVILSNQAGDPELYQRAIVAIGDTLAGKGLVEAAHFCYLMAHVPFGHYTVKTDHLVLLGSSHSQEFLKFATTEAIQRTEIFEYCQMLGRPKSFIPSFQVYKLLYASRLADYGLVSQALHYCEAIGAAVLSQGESSHPVLLVELIKLAEKLKLSDPLVLERRSGDRDLEPDWLAQLRRQLEQKVAGDIGDPHPTRSDISGAGGTTTENTFYQDFSGCQGYSEAPGYRSALWLTPEQTCLLQPSPQQPFPLQPGSYPAGGGAGQTGTPRPFYSVPETHLPGTGSSVAVTEATGGTVWEEMLQTHLGPGENTVSQETSQPPDGQEVISKPQTPLAARPRSISESSASSAKEDEKESSDEADKNSPRNTAQRGKLGDGKEHTKSSGFGWFSWFRSKPTKNASPAGDEDSSDSPDSEETPRASSPHQAGLGLSLTPSPESPPLPDVSAFSRGRGGGEGRGSASSGGAAAGAGVGGLSGPESVSFELCSNPGVLLPPPALKGAVPLYNPSQVPQLPTATSLNRPNRLAQRRYPTQPC
# B3: TREML1, Q86YW5 (protein)
# chain: MGLTLLLLLLLGLEGQGIVGSLPEVLQAPVGSSILVQCHYRLQDVKAQKVWCRFLPEGCQPLVSSAVDRRAPAGRRTFLTDLGGGLLQVEMVTLQEEDAGEYGCMVDGARGPQILHRVSLNILPPEEEEETHKIGSLAENAFSDPAGSANPLEPSQDEKSIPLIWGAVLLVGLLVAAVVLFAVMAKRKQGNRLGVCGRFLSSRVSGMNPSSVVHHVSDSGPAAELPLDVPHIRLDSPPSFDNTTYTSLPLDSPSGKPSLPAPSSLPPLPPKVLVCSKPVTYATVIFPGGNKGGGTSCGPAQNPPNNQTPSS
# Target: SARS-CoV-2 E
# Assay: yeast fitness gain over the viral ORF with no human partner (scaled fitness); higher = more likely to interact
# Procedure: (§1)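 Split mouse DHFR complementation in pooled diploid yeast: human ORFeome clones carry one fragment and viral ORFs the other; barcoded lineages compete in 1 µg/mL methotrexate and fitness is read by barcode sequencing in up to three cultures.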
row,Binder,yeast fitness gain
1,B1,inactive: -0.0235
2,B2,inactive: -0.0275
3,B3,inactive: -0.0981

# Target: SARS-CoV-2 M
# Assay: as above
# Procedure: as §1
row,Binder,yeast fitness gain
1,B1,inactive: 0.0502
2,B2,inactive: -0.0301
3,B3,inactive: -0.0105

# Target: SARS-CoV-2 N
# Assay: as above
# Procedure: as §1
row,Binder,yeast fitness gain
1,B1,inactive: 0.0441
2,B2,inactive: 0.0894
3,B3,inactive: 0.0773

# Target: SARS-CoV-2 NSP1
# Assay: as above
# Procedure: as §1
row,Binder,yeast fitness gain
1,B1,inactive: 0.00443
2,B2,inactive: 0.0666
3,B3,inactive: 0.0136

# Target: SARS-CoV-2 NSP10
# Assay: as above
# Procedure: as §1
row,Binder,yeast fitness gain
1,B1,inactive: 0.036
2,B2,inactive: 0.0282
3,B3,inactive: 0.0235

# Target: SARS-CoV-2 NSP12
# Assay: as above
# Procedure: as §1
row,Binder,yeast fitness gain
1,B1,inactive: -0.0551
2,B2,inactive: 0.0142
3,B3,inactive: 0.00755

# Target: SARS-CoV-2 NSP13
# Assay: as above
# Procedure: as §1
row,Binder,yeast fitness gain
1,B1,inactive: -0.00901
2,B2,inactive: -0.0384
3,B3,inactive: -0.0145

# Target: SARS-CoV-2 NSP14
# Assay: as above
# Procedure: as §1
row,Binder,yeast fitness gain
1,B1,inactive: -0.0763
2,B2,inactive: -0.117

# Target: SARS-CoV-2 NSP15
# Assay: as above
# Procedure: as §1
row,Binder,yeast fitness gain
1,B1,inactive: 0.0166
2,B2,inactive: 0.0864
3,B3,inactive: -0.0579

# Target: SARS-CoV-2 NSP16
# Assay: as above
# Procedure: as §1
row,Binder,yeast fitness gain
1,B1,inactive: 0.0376
2,B2,inactive: 0.0521
3,B3,inactive: 0.022

# Target: SARS-CoV-2 NSP2
# Assay: as above
# Procedure: as §1
row,Binder,yeast fitness gain
1,B1,inactive: -0.104
2,B2,inactive: -0.0735
3,B3,inactive: -0.108

# Target: SARS-CoV-2 NSP5
# Assay: as above
# Procedure: as §1
row,Binder,yeast fitness gain
1,B1,inactive: 0.0049
2,B2,inactive: 0.00322
3,B3,inactive: -0.0164

# Target: SARS-CoV-2 NSP6
# Assay: as above
# Procedure: as §1
row,Binder,yeast fitness gain
1,B1,inactive: -0.0553
2,B2,inactive: -0.0747
3,B3,inactive: 0.0796

# Target: SARS-CoV-2 NSP7
# Assay: as above
# Procedure: as §1
row,Binder,yeast fitness gain
1,B1,inactive: -0.0554
2,B2,inactive: 0.0036
3,B3,inactive: 0.111

# Target: SARS-CoV-2 NSP8
# Assay: as above
# Procedure: as §1
row,Binder,yeast fitness gain
1,B1,inactive: -0.0745
2,B2,inactive: 0.0612
3,B3,inactive: 0.0507

# Target: SARS-CoV-2 NSP9
# Assay: as above
# Procedure: as §1
row,Binder,yeast fitness gain
1,B1,inactive: 0.0184
2,B2,inactive: -0.00543
3,B3,inactive: -0.112

# Target: SARS-CoV-2 ORF10
# Assay: as above
# Procedure: as §1
row,Binder,yeast fitness gain
1,B1,inactive: -0.0291
2,B2,inactive: -0.034
3,B3,inactive: 0.0721

# Target: SARS-CoV-2 ORF3B
# Assay: as above
# Procedure: as §1
row,Binder,yeast fitness gain
1,B1,inactive: 0.0419
2,B2,inactive: -0.0506
3,B3,inactive: 0.0579

# Target: SARS-CoV-2 ORF6
# Assay: as above
# Procedure: as §1
row,Binder,yeast fitness gain
1,B1,inactive: 0.0178
2,B2,inactive: 0.017
3,B3,inactive: 0.0277

# Target: SARS-CoV-2 ORF7A
# Assay: as above
# Procedure: as §1
row,Binder,yeast fitness gain
1,B1,inactive: -0.0668
2,B2,inactive: 0.019
3,B3,inactive: 0.000413

# Target: SARS-CoV-2 ORF7B
# Assay: as above
# Procedure: as §1
row,Binder,yeast fitness gain
1,B1,inactive: -0.0414
2,B2,inactive: -0.00665
3,B3,inactive: -0.0341

# Target: SARS-CoV-2 ORF8
# Assay: as above
# Procedure: as §1
row,Binder,yeast fitness gain
1,B1,inactive: -0.0898
2,B2,inactive: -0.00223
3,B3,inactive: 0.0264

# Target: SARS-CoV-2 ORF9B
# Assay: as above
# Procedure: as §1
row,Binder,yeast fitness gain
1,B1,inactive: -0.0239
2,B2,inactive: -0.00592
3,B3,inactive: -0.000499

# Target: SARS-CoV-2 ORF9Bwu (the 73-codon ORF)
# Assay: as above
# Procedure: as §1
row,Binder,yeast fitness gain
1,B1,inactive: -0.0388
2,B2,inactive: 0.0658
3,B3,inactive: -0.00657

# Target: SARS-CoV-2 S
# Assay: as above
# Procedure: as §1
row,Binder,yeast fitness gain
1,B1,inactive: -0.0248
2,B2,inactive: 0.0404
3,B3,inactive: 0.0642

# Target: SARS-CoV-2 ORF3A
# Assay: as above
# Procedure: as §1
row,Binder,yeast fitness gain
1,B2,inactive: 0.0692
2,B3,inactive: -0.137

# Target: SARS-CoV-2 NSP4
# Assay: as above
# Procedure: as §1
row,Binder,yeast fitness gain
1,B3,inactive: -0.173
